Assay results from ChEMBL document CHEMBL1156484, “Hot spots in prion protein for pathogenic conversion” (Proc Natl Acad Sci U S A, 2007).
Calls of active or inactive are those of the source. The calls are words filed in the database; no cut-off is given here.

What was measured:
GT1-7 [1] = assay: Inhibition of scrapie form PrP production in mouse GT1-7 cells infected with human transmissible spongiform encephalopathies agent Fukuoka1 at 10 uM by Western blot
GT1-7 [2] = assay: Inhibition of scrapie form PrP production in mouse GT1-7 cells infected with human transmissible spongiform encephalopathies agent 22L
GT1-7 [3] = assay: Inhibition of scrapie form PrP production in mouse GT1-7 cells infected with bovine spongiform encephalopathy agent by Western blot
GT1-7 [4] = assay: Inhibition of scrapie form PrP production in mouse GT1-7 cells infected with human transmissible spongiform encephalopathies agent Chandler/RML

`O=C(CN1CCCC1)Nc1ccc(Cc2ccc(NC(=O)CN3CCCC3)cc2)cc1` was tested, and the Activity (GT1-7 [1]) was “Active”, the Activity (GT1-7 [2]) was “Active” and the Activity (GT1-7 [3]) was “inactive”. The Activity (GT1-7 [4]) was “Active”.
